In all, about 33,000 sequences were measured (“E-score (-0.5 to 0.5)”: median about -0.032, highest 2% from about 0.36 on). The list shows a part of the results.
target: T1, Sko1 (UniProt Q02100); test: PBM E-score (8-mer binding enrichment) (E-score (-0.5 to 0.5)); higher = stronger / more preferred TF binding; most listed sequences are background and not binding sites; conditions: protein concentration: 200 nM; construct: GST-full length
T1 sequence: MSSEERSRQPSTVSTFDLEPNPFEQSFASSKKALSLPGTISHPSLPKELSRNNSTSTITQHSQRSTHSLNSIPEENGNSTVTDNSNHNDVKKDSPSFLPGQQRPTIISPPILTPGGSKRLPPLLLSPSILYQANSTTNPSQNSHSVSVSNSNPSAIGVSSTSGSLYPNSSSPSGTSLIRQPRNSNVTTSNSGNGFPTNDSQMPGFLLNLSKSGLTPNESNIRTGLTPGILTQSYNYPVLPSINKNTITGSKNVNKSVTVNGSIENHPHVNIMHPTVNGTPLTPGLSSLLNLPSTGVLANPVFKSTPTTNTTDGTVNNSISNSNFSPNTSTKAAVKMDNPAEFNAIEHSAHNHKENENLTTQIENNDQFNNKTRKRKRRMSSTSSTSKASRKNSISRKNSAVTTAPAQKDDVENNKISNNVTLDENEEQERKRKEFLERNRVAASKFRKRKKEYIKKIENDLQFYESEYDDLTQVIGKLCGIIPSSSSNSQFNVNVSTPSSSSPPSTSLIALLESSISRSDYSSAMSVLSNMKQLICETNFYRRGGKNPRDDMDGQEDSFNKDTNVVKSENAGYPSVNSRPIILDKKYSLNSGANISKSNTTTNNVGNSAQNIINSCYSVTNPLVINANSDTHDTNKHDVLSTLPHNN
How it was run: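 Full-length yeast transcription factors or their DNA-binding domains, GST-tagged and expressed with PURExpress, were applied at about 100-200 nM to universal all-10-mer Agilent arrays. These arrays had been made double-stranded by primer extension on fresh or once-stripped slides. Detection used fluorescent anti-GST, normalisation used masliner, and E-scores for ungapped eight-base words pooled with reverse complements came from the Universal PBM Analysis Suite.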

| Sequence | PBM E-score |
| --- | --- |
| AAAAATCT | 0.143 |
| GGAATTCC | -0.296 |
| AGAGTTAA | 0.0436 |
| CGGTCGGC | -0.416 |
| AACGAGGA | -0.00299 |
| GAACCCGC | -0.23 |
| CGAAGTTC | -0.0101 |
| AACTTGCC | -0.0206 |
| AACCCGTG | -0.216 |
| GAACTCGA | 0.0384 |
| CACCAATG | 0.00918 |
| AGAAAAGA | 0.0187 |
| AGAGTCGG | -0.157 |
| TCTACGCA | 0.32 |
| GGTCTTTA | 0.00742 |
| ATGCGAAC | 0.0655 |
| AATCGAGA | 0.119 |
| ATCGTTAG | 0.0767 |
| CATTTACG | 0.369 |
| AACCTGCT | -0.0612 |
| CCGCGCTC | -0.118 |
| AGAATTAG | -0.012 |
| ATGCCTAC | -0.249 |
| GTTTGTCA | 0.122 |
| TGAAGCAA | -0.0667 |

| Sequence | PBM E-score |
| --- | --- |
| CCTGACTA | 0.0618 |
| ATAATCTC | 0.143 |
| ATCCCGAC | -0.0708 |
| ATTGGTAG | -0.0367 |
| AAAAGCAA | 0.0963 |
| GCCGTAGA | -0.126 |
| GGTAAGTA | 0.0153 |
| ACAAGACA | 0.0553 |
| ACCGATAC | -0.053 |
| AGGGGCAG | -0.291 |
| AATAGCAA | 0.132 |
| CGTAGTAG | 0.309 |
| ATTTCGAG | 0.138 |
| ATACGGAG | -0.018 |
| GCTTCTTA | 0.0735 |
| GAATCGCA | -0.0842 |
| CGTAGCGC | 0.11 |
| ATGCGTTA | 0.247 |
| CTAGTTCC | -0.00523 |
| CTCCAAAC | -0.0765 |
| CACGTTTA | 0.321 |
| CTCACCTA | -0.0336 |
| GTGAACCA | 0.0754 |
| TACTCCTA | -0.022 |
| GGTGTGCA | -0.117 |

| Sequence | PBM E-score |
| --- | --- |
| AGGTCCCA | -0.0642 |
| CCAGGTGC | -0.141 |
| AGTAGGTC | -0.0186 |
| CGGGGGAA | -0.318 |
| AGTAGGAA | -0.0265 |
| ACCTAGAC | -0.00777 |
| CAGGTCCG | -0.267 |
| AGCTTAGG | -0.198 |
| CCGGTCCA | -0.385 |
| GACAGTTA | -0.13 |
| AGATCACG | 0.237 |
| AGAACTGC | -0.0612 |
| TCCGCGAA | -0.0984 |
| CGACTAAA | 0.0341 |
| AGCACAGG | -0.179 |
| TCACTAAA | 0.136 |
| ATCACGAA | 0.162 |
| AAATAAAG | -0.0497 |
| ACCTCGAT | -0.16 |
| AAGACAGG | -0.144 |
| CTTTATGA | 0.128 |
| GAGAGTCC | -0.26 |
| AAAAGCGG | -0.214 |
| AATTGTAG | 0.15 |
| CCGCGAAG | -0.271 |

| Sequence | PBM E-score |
| --- | --- |
| AGTGTCCA | 0.00039 |
| CGACGCCA | 0.174 |
| AAACGGAT | 0.134 |
| GCCGAATA | -0.0896 |
| GCACTTAA | 0.109 |
| ACCTGACT | -0.0826 |
| CCGTCTAC | 0.0306 |
| CTTTCAAA | 0.185 |
| ATTGCTCG | -0.0663 |
| CCGAGGCA | -0.263 |
| CACGCCTC | -0.0948 |
| ACGCAGTC | 0.155 |
| GGCTACGA | 0.127 |
| AGGACCCA | -0.242 |
| CCATGCGC | -0.248 |
| AATTGGAC | -0.0273 |
| CCTAGTAA | -0.21 |
| AATGTACA | 0.273 |
| CATCATCC | 0.257 |
| CAGAATCA | 0.16 |
| GGTGCACC | -0.207 |
| AACTATAG | -0.111 |
| CTCGACCA | -0.36 |
| GTTCTTAA | 0.0342 |
| CTTTCTGC | -0.0825 |

| Sequence | PBM E-score |
| --- | --- |
| CTTAATCC | -0.16 |
| CATCGGTA | -0.0845 |
| GCAGTCCC | -0.188 |
| GGGGTGAA | -0.168 |
| ATTGGTGG | -0.0357 |
| ACGTACAT | 0.449 |
| GTCATAGA | 0.406 |
| CCGTGAAG | -0.144 |
| AATGATCA | 0.0979 |
| GCATTCGC | -0.0755 |
| AGCCAGCA | -0.425 |
| TGAGTCAA | 0.11 |
| CTACTTTA | 0.111 |
| CTCGTGTC | -0.126 |
| AACGGTAC | 0.0834 |
| GCCTCAGC | -0.2 |
| AATTATGC | 0.231 |
| GAGCAGTA | -0.111 |
| CCGCCCGG | -0.122 |
| CATCTATA | 0.0404 |
| CTCTGAAA | -0.0969 |
| ATTAAGCC | -0.0361 |
| AGCGACCA | -0.0164 |
| ACTAGGAA | -0.0606 |
| CGTTAGTC | -0.0638 |

| Sequence | PBM E-score |
| --- | --- |
| ATCTCCCG | -0.14 |
| CGGACGTA | 0.353 |
| AATTAGGT | 0.26 |
| CCGCCGAC | -0.117 |
| GCAAATGC | -0.00289 |
| ATCGAATC | 0.103 |
| ATGGCTAA | -0.0608 |
| ATAGCTAA | -0.0626 |
| AAACGCGG | -0.00101 |
| GTTCACGA | 0.166 |
| AAGATTCT | -0.132 |
| GGATGTAC | -0.0326 |
| CAGTTCTA | -0.106 |
| CTCTACAG | -0.107 |
| CATCCTCA | -0.111 |
| AATTTAAG | 0.157 |
| AATTCCAG | 0.0652 |
| CAGTGATA | 0.0608 |
| ACATGTCC | -0.093 |
| AAAAGCTT | 0.0189 |
| CAGTACAA | -0.202 |
| GTACGGGA | -0.0354 |
| AATCTCAC | -0.0325 |
| ATTTCAAG | 0.151 |
| CCATTGGG | -0.25 |

| Sequence | PBM E-score |
| --- | --- |
| GGCAGTAC | -0.122 |
| GTATACAA | 0.189 |
| GCGCATCC | -0.111 |
| AAGAGAGA | -0.0372 |
| GCCGGTAC | -0.00848 |
| AATGGGTG | -0.0853 |
| ATCTATGG | -0.199 |
| ATACTTGG | -0.177 |
| GGGGAGTA | -0.124 |
| GTGTCAAA | 0.0559 |
| AAAGGCCG | -0.244 |
| ACGAGACA | 0.00349 |
| AAAACCAA | -0.0994 |
| ATTCACTC | -0.105 |
| ACTGTTCT | -0.0556 |
| ATCAGTCG | 0.0446 |
| CATTAACC | 0.12 |
| CCTACGTC | 0.427 |
| ATGAATTA | 0.181 |
| CATTCCCG | -0.0409 |
| GAATACAA | -0.044 |
| AGCGAAAT | 0.0712 |
| GCGAAAGA | -0.114 |
| CGTTGCGC | 0.0912 |
| GACAAAAA | 0.232 |

| Sequence | PBM E-score |
| --- | --- |
| ATCGGGGG | -0.343 |
| CGAAGGTC | -0.288 |
| ATTGGCTC | -0.108 |
| ACGCCCTC | -0.134 |
| GACGACCA | 0.0911 |
| AATCAGCA | 0.0708 |
| ACAACATA | 0.179 |
| AGGAAACA | -0.00892 |
| AATTCGCG | 0.162 |
| AGGATAAA | 0.0612 |
| ACCAACGC | -0.133 |
| CTGATGGC | -0.0166 |
| GTATTCTA | 0.205 |
| ATTGTTAG | 0.0985 |
| TAGCTCGA | -0.192 |
| AATTTGTA | 0.0973 |
| CCTTCTGC | -0.281 |
| ACCTGCGA | -0.246 |
| AACTAACT | 0.0332 |
| ATAGTTCC | -0.0904 |
| GCCGGTAA | 0.0146 |
| CATCTCGA | -0.0148 |
| CCGGCCTC | -0.284 |
| TCAAAAGA | 0.0144 |
| GCAGAACC | -0.16 |

| Sequence | PBM E-score |
| --- | --- |
| CAAATTCG | 0.0823 |
| CCATCACG | 0.222 |
| AGACTTGG | -0.272 |
| GTAGTGCA | 0.0951 |
| ACACGACC | -0.0213 |
| GAACTGTA | -0.0392 |
| CTGTCAAC | -0.00385 |
| CTGCTCAC | -0.0455 |
| CAAATAGG | -0.145 |
| GGCATCAA | -0.0189 |
| CAGTTTAG | -0.0712 |
| CGGGATGA | -0.00457 |
| CAAACCTC | -0.268 |
| CGTCCTGA | -0.0683 |
| CCCTCGTC | -0.0567 |
| CTCAAAAC | 0.0712 |
| ATAAGTGC | -0.0835 |
| GAATCTTA | 0.151 |
| CAAAACCA | 0.042 |

Reference: the supplement of paper PMC3334620
